Laboratory results from PubChem BioAssay AID485344 (National Center for Advancing Translational Sciences (NCATS), 2010).
Out of some 340,000 compounds screened, about 6,900 (2%) were called active. Rule as the data show it: active = inhibition above about 30%; inactive = below that, where a call was filed. Only a part is listed here, and it is no random draw. The source gives no active or inactive call for entries shown without one.

molecular target: D(2) dopamine receptor (Homo sapiens) (UniProt P14416); assay: HTS Assay for Allosteric Antagonists of the Human D2 Dopamine Receptor: Primary Screen for Antagonists; conditions: HEK293 TREx D2 cells, calcium flux, dopamine EC80; at 10 µM; stronger effect = higher value; also: 0% is about no effect
Chain of UniProt P14416 (P14416 whole entry, looked up): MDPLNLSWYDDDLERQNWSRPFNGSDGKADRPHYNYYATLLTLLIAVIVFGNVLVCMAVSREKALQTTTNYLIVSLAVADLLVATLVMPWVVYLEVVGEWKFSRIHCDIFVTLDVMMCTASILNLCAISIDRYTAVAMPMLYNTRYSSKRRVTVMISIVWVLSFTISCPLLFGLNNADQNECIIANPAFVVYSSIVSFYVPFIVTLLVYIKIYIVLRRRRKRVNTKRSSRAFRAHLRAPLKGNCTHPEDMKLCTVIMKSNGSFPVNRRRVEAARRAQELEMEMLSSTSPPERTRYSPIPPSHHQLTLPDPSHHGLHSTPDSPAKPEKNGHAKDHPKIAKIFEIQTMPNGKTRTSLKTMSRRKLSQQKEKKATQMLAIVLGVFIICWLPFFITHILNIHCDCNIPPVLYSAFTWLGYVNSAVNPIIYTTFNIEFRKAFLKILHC
How it was run: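 Tetracycline-induced HEK293 TREx cells expressing D2 receptor forced-coupled to calcium signalling, loaded with no-wash calcium dye. Compounds added and calcium flux read 180 s, then dopamine added at EC80 and read a further 180 s.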

Structure (SMILES) | inhibition
Cn1cnnc1SCC(=O)Nc1ccc(C#N)cc1 | -4.82%
CN(CC(=O)NCc1ccccc1)S(=O)(=O)c1ccc2[nH]c3c(c2c1)CCCC3 | 19.5%
COc1cc(C(=O)Nc2ccc(S(=O)(=O)NC(C)C)cc2)cc(OC)c1OC | active: 30.9%
Cc1cc(Nc2nc3ccccc3c3nnc(C)n23)ccc1Br | 1.97%
Cc1cc(C)cc(NC(=O)CSc2c(C(C)C)cnc3c2c(=O)n(C)c(=O)n3C)c1 | -3.09%
Cc1cc(C)cc(Nc2cc(C(=O)NC3CCCCC3)c3ccccc3n2)c1 | -12.2%
COc1ccc(C)cc1NC(=O)c1cc(S(=O)(=O)N2CCC(C)CC2)ccc1F | 8.11%
CCOC(=O)c1ccccc1NC(=O)CSc1nnc(CC)n2c1cc1occc12 | 17.2%
CCCCc1ccc(C(=O)Nc2ccc3nc(N4CCN(CC)CC4)cc(C)c3c2)cc1 | -0.053%
CCOC(=O)c1cc(C)n(CC2CCC(C(=O)Nc3ccc(OC)cc3)CC2)c1C (stereo not drawn) | -6.35%
Fc1ccc(-c2cc3ncc4c(n3n2)-c2cc(Cl)ccc2OC4)cc1 | -14.3%
COc1ccc(CCNc2ncnc3c2c(-c2ccccc2)cn3-c2ccc(Cl)cc2)cc1OC | 8.21%
Cc1ccc(C(=O)Nc2ccccn2)cc1S(=O)(=O)N1CCOCC1 | active: 34.9%
CCOC(=O)CSc1nc2ccc(NC(=O)c3ccc(Cl)cc3)cc2s1 | 3.46%
COc1cccc(-c2nc(CS(=O)(=O)CC(=O)Nc3cccc(C(C)=O)c3)c(C)o2)c1 | 5.39%
COc1cc(CN(C(=O)c2ccc(OC(C)C)cc2)c2ccccn2)cc(OC)c1OC | -0.374%
CCCC(=O)C1=C(O)C(C(=O)OC)C(C)(C)CC1=NC(C)C (stereo not drawn) | active: 32.7%
COC(=O)c1ccc(NC(=O)C2CCN(c3ncnc4c3nc3n4CCCCC3)CC2)cc1 | 5.58%
COc1ccccc1-c1nnc(C2CCN(C(=O)c3ccccc3C)CC2)o1 | 10.2%
COc1ccc(N(CC(=O)Nc2cc(OC)cc(OC)c2)S(=O)(=O)c2c(C)noc2C)cc1 | 14.4%
Cc1cccc(-n2c(C)cc(C(=O)C(=O)Nc3nncs3)c2C)c1 | -13.4%
Cc1ccc(O)c(NC(=O)CCS(=O)(=O)c2nc(-c3cccs3)cc(C(F)(F)F)n2)c1 | -6.43%
Cc1ccc(C(C)C)c(OCC(=O)Nc2cc(-c3nc4ccccc4[nH]3)ccc2C)c1 | 18.1%
COc1ccccc1NC(=O)c1cc2c(=O)n(Cc3cccs3)ccc2nc1C | -0.167%
COc1ccccc1N1CCN(CCCCCCOc2ccc(F)cc2)CC1 | active: 81.1%

Structure (SMILES) | inhibition
CCc1ccccc1NC(=O)c1cc(-c2ccc(Cl)s2)nc2ccccc12 | 7.72%
Cc1oc(-c2ccccc2F)nc1Cn1c(SCc2cccc(C(F)(F)F)c2)nc2ccncc21 | -9%
O=C(Nc1ccccc1F)c1cnc(N2CCCCC2)c2ccccc12 | -28.6%
CCC(=O)Nc1cc2c3c(c1)CCN3C(=O)CC2 | active: 32.9%
CCOc1ccccc1NC(=O)Cn1c(=O)n(Cc2ccc(OC)cc2)c(=O)c2oc3ccccc3c21 | 8.13%
O=c1c2cccnc2[nH]c(=S)n1CCCN1CCN(c2ccc(F)cc2)CC1 | active: 101%
COc1ccc(C(C)=O)cc1COC(=O)Cc1n[nH]c(=O)c2ccccc12 | active: 33.1%
COc1ccc(OC)c(CNC(=O)CCCn2c(=O)c3cccn3c3cccnc32)c1 | 15.1%
S=c1[nH]nc(C2CCCCC2)n1/N=C/c1ccc(Br)cc1 | active: 36%
CCOC(=O)c1sc2ncn(CC(=O)Nc3ccc(F)cc3F)c(=O)c2c1C | -3.33%
COC(=O)c1c(NC(=O)c2ccc(Cl)c(Cl)c2)sc2c1CCCC2 | -7.67%
CCOc1ccc(NC(=O)CSc2nnc3scc(-c4ccccc4)n23)cc1 | 0.932%
COc1ccc(-c2onc(C)c2C)cc1S(=O)(=O)NCc1cccs1 | -4.96%
CCOC(=O)c1noc2ncn(CC(=O)Nc3ccc(F)cc3Cl)c(=O)c12 | -0.269%
CCOc1ccc(C(=O)Nc2ccc3c(c2)CCCN3S(=O)(=O)c2ccc(C)cc2)cc1 | -9.3%
CC1CCCCN1Cc1c(O)ccc2c(=O)c(-c3ccc(Cl)cc3)c(C(F)(F)F)oc12 (stereo not drawn) | -2.75%
CC1=C(C(=O)OCc2ccc(C)cc2)C(c2ccccc2C(F)(F)F)CC(=O)N1 (stereo not drawn) | 3.88%
Cc1ccc(OCCSc2nc3ccccc3n2CC(=O)N2CCOCC2)cc1 | 5.78%
COc1ccccc1N1CCN(C(=O)Cn2ncc3c2-c2cc(C)ccc2OC3)CC1 | 1.28%
COc1ccc(Nc2nc3ccc(C)cc3nc2-n2nc(C)cc2C)cc1Cl | 10.4%
COCCN1CCc2nc(SCC(=O)Nc3ccc(C)c(Cl)c3)[nH]c(=O)c2C1 | 10.9%
COc1ccccc1NC(=O)CC1Sc2ccc(C(F)(F)F)cc2NC1=O (stereo not drawn) | -5.91%
Cc1cc(C)nc(SCc2cn3ccccc3n2)n1 | active: 38.3%
CCOc1ccccc1CNC(=O)Cn1c(=O)c2cccn2c2ccc(F)cc21 | -15.5%
O=C1CC(c2ccc(OCCCCCOc3ccc(C4CC(=O)NC4=O)cc3)cc2)C(=O)N1 (stereo not drawn) | active: 36.6%

Structure (SMILES) | inhibition
CC1=C(C(=O)NCc2cccc(F)c2)C2(CCCCCC2)OC1=O | -1.18%
COc1ccc(CNC(=O)c2cc(-c3ccc(Br)s3)nc3ccccc23)c(OC)c1 | -7.55%
Cc1cccc(CN2CCN(c3ncccn3)CC2)c1 | active: 82.8%
COC(=O)Nc1nnc(/C=C/c2ccc(OC)cc2)s1 | active: 30.7%
O=C(C[n+]1ccc(-c2ccccc2)cc1)Nc1ccc([N+](=O)[O-])cc1 | active: 36.9%
CCc1nc(SC)ncc1C(=O)NCc1cccc(Br)c1 | 16.8%
O=C(Cn1nc(Cc2cccnc2)c2ccccc2c1=O)N1CCN(c2ccccc2F)CC1 | 6.41%
COc1ccc(CNC(=O)c2ccc(CN3C(=O)C(C)=C(c4ccc(C)cc4)S3(=O)=O)cc2)cc1 | -1.62%
Cc1cc(O)c2c(C)c(CC(=O)NCc3ccccc3Cl)c(=O)oc2c1 | -2.51%
O=C(NCCSc1c[nH]c2ccccc12)c1ccc(Cl)cc1 | -11.7%
O=C(NCCc1ccccc1)c1ccc2c(c1)N(Cc1ccc(Cl)cc1)C(=O)c1ccccc1S2(=O)=O | 0.0422%
COc1ccc(Cn2c(SCc3ccc(C(=O)NCc4ccc(C)cc4)cc3)nc3cccnc32)cc1 | -6.7%
Cc1ccc(C2=Nc3ccccc3N=C(c3ccc(F)cc3)C2)c(O)c1 | -12.7%
CCN(c1ccccc1C)S(=O)(=O)c1nnc(NC(=O)c2ccc(OC)c(OC)c2)s1 | 11.8%
COc1ccc(CNC(=O)CN2N=C(c3ccc(Cl)cc3)CCC2=O)cc1 | -9.81%
COc1ccc(-c2nn(C)c3sc(C(=O)NCCN(C)C)cc23)cc1OC | -1.37%
Cc1cc(C)c(NC(=O)Cn2c(=O)n(CCC(C)C)c(=O)c3cccnc32)c(C)c1 | 1.64%
CN(c1ccc(C(=O)N2CCN(Cc3ccccc3)CC2)cc1)S(=O)(=O)c1ccc(Cl)cc1 | active: 89.9%
COc1ccc(C(=O)CC2(O)C(=O)N(Cc3ccccc3)c3ccc(Br)cc32)cc1 (stereo not drawn) | 21.3%
CCc1ccc(C(=O)c2cn(CC(=O)NCCc3ccccc3)c3nc(C)ccc3c2=O)cc1 | 3.09%
COc1cccc(NC(=O)C2CCCN(c3ncnc4onc(-c5ccc(F)cc5)c34)C2)c1 (stereo not drawn) | -5.71%
COc1ccc(Nc2nc(Cl)nc(Nc3ccc(OC)cc3OC)n2)c(OC)c1 | active: 51.3%
Cc1ccc(C)c(OCC(=O)Nc2sc3c(c2C#N)CCCC3)c1C | -12.2%
CCC1CCCCN1CCCNC(=O)c1ccc2c(c1)c(C)c(C)n2CC (stereo not drawn) | -26.2%
CCOC(=O)c1c(Nc2ccc(C)c(C)c2)nnc(-c2ccccc2)c1-c1ccccc1 | 17%

Structure (SMILES) | inhibition
O=C(NCCc1ccccc1)c1c[nH]c2ccc(S(=O)(=O)Nc3ccc(F)cc3F)cc2c1=O | 4.97%
CCOc1ccc(NC(=O)NCCN2CCN(c3cc(Cl)ccc3C)CC2)cc1 | -5.36%
CCCC(=O)Nc1cc2nn(-c3ccc(OC)cc3)nc2cc1C | 14.7%
CC1=C(c2ccc(C)c(C)c2)S(=O)(=O)N(Cc2ccc(C(=O)NCc3ccccc3F)cc2)C1=O | -12.3%
N#C/C(=C\c1ccc(O)cc1)C(=O)NCC1CCCO1 (stereo not drawn) | -18.7%
Cc1cc(C)cc(NC(=O)Cn2nnc(-c3ccccc3F)n2)c1 | -5.86%
O=C(CCc1cn(Cc2ccc(F)cc2)c2ccccc12)NC1CCCCC1 | 0.839%
COc1ccc(-c2cc(C(F)(F)F)n3nc(C)c(-c4ccccc4)c3n2)cc1OC | 11.8%
CCn1nc(C)c2c(-c3ccccc3)cc(=O)n(C(C)C(=O)Nc3ccc(OC)c(OC)c3)c21 (stereo not drawn) | -6.08%
COc1ccc(C2C=C(c3ccccc3)Nc3nc(NC(C)=O)nn32)cc1 (stereo not drawn) | -4.02%
CCOC(=O)c1ccccc1NC(=O)CN(c1ccccc1)S(=O)(=O)c1ccc(OCC)cc1 | 0.244%
Cc1cccc(NC(=O)Nc2cccs2)c1C | -8.18%
C=CCc1cc(Cl)ccc1OCCNCCOC | active: 55.2%
CCCCCCc1c(C)c2c(cc(C)c3c(C)coc32)oc1=O | -1.15%
Cc1ccc(C)c(NC(=O)Cn2ncc3c(C)n(Cc4ccc(F)cc4)c(C)c3c2=O)c1 | -0.75%
CCn1cc(C(=O)OCC(=O)Nc2cc(Cl)ccc2C)c(=O)c2ccc(C)nc21 | -11.7%
Cc1ccc(NC(=O)C2CCN(S(=O)(=O)c3cccc4nsnc34)CC2)cc1 | 0.004%
CCCCOc1ccc(C2C(=O)N(C3CCCCC3)CC(=O)N2C2CCCCC2)cc1 (stereo not drawn) | 12.2%
Cc1ccc(NC(=O)CN2C(=O)C(c3ccc(F)cc3)=NC23CCCCCC3)c(C)c1 | 0.578%
Cc1ccc(C)c(N2CCN(C(=O)c3cc4cc5ccc(C)cc5nc4o3)CC2)c1 | -2.21%
CC1CCN(S(=O)(=O)c2ccc3nc(NCc4ccc(N(C)C)cc4)ccc3c2)CC1 | 4.61%
CCc1cccc(NC(=O)Cn2c(=O)n(CCCCCC(=O)NCc3ccc(F)cc3)c(=O)c3sccc32)c1 | -3.35%
CCOC(=O)N1CCc2c(sc3c2c(=O)n(-c2ccc(CC)cc2)c(=O)n3Cc2cccc(Cl)c2)C1 | 11.9%
